{
  "source": "PubChem BioAssay (NCI)",
  "key": {"T-47D breast": {"test_system": "T-47D breast", "test": "NCI-60 one-dose screen, 48 h (100 = growth as untreated, 0 = no growth, -100 = all killed)"}, "BT-549 breast": {"test_system": "BT-549 breast", "test": "NCI-60 one-dose screen, 48 h (100 = growth as untreated, 0 = no growth, -100 = all killed)", "conditions": "0.25 µM"}},
  "note": "Some structures have more than one record in an assay (separate samples or runs), and their calls can disagree.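 Results are percent growth after 48 hours of single-concentration exposure. 100 means growth as in untreated cells, lower positive values show inhibition; negative values down to -100 show cell death.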 Not every entry of the source has a single result; some have several. Only these are listed. The calls were made as follows: active = growth percent below 10; inactive = the rest. An entry can have further records. These are repeated runs of one drug, at its own concentration, as given; each value is one run. Brackets with × stand for listed records that agree.",
  "data": [
    {"smiles": "COc1cccc2c1C(=O)c1c(O)c3c(c(O)c1C2=O)C[C@@](O)(C(=O)CO)C[C@@H]3OC1CC(N)C(O)C(C)O1", "note": "(stereo not given in full)", "values": [
      {"measurement": "growth", "setting": "T-47D breast; 0.25 µM, runs of 2018", "result": "inactive: 16.5, 18.7 (2×), 22.3, 11.2, 23.3, 22.4 (2×), 24.1, 23.8, 20.9, 18.9, 24.6 (2×), 33.4, 30.4, 42.7, 36 (2×), 21.4 (2×), 32.9, 35, 21.8 (2×), 20.8, 21, 25.8, 24.7, 17.5, 16.7, 23.7 (2×), 23.6, 23.2, 30, 24.5, 25.6, 24.2, 24, 15.2, 12.5, 21.2, 20.2, 22.2, 20.4, 12.3, 25.9, 26.9, 33.8, 31, 13.9, 18%"},
      {"measurement": "growth", "setting": "T-47D breast; 0.25 µM, runs of 2019", "result": "inactive: 23.4, 15.2, 22.2, 17.5, 23.2, 26.9, 22.3, 22.4, 27.4, 15.9, 26.4, 17.9 (2×), 23.8 (2×), 26, 26.3, 25.1, 20.6, 13.4, 17.1 (2×), 26.1 (2×), 21.9, 20.4, 22.9, 38.6, 38.1, 19.9, 29, 21.7, 22, 19.7, 13.8, 12, 12.9, 15.5, 17.4, 24.1, 19.2, 25.4, 17.7, 19.3% and active: 8.56%"},
      {"measurement": "growth", "setting": "T-47D breast; 0.25 µM, runs of 2020", "result": "inactive: 19.1, 26.5, 35.7, 42.5, 25.1, 21.1, 24.6, 24.1, 19.9, 23.1, 20.7, 20.9, 26.7, 25.2, 34.4, 30.5, 20.6, 26.6 (2×), 24.3, 26.8, 21.7, 24.7, 20.5%"},
      {"measurement": "growth", "setting": "T-47D breast; 0.25 µM, runs of 2021", "result": "inactive: 32.5, 26.9, 25.8 (2×), 26.4, 30 (2×), 34.2, 26.1 (2×), 29.8, 34.6, 31.4, 22.3, 25.3, 21.3, 24.6, 26, 24.4 (2×), 19.1, 22.6 (2×), 23.8, 21.6, 26.6, 15.6 (2×), 20.3, 28.5, 25.4 (2×), 21, 20, 25.1, 23.1, 25.9, 35.5, 33.4, 32.9, 29, 19.6, 33.9, 25.2, 15.9, 33.3, 17.6, 27.4, 21.2%"},
      {"measurement": "growth", "setting": "T-47D breast; 0.25 µM, runs of 2022", "result": "active: -3.42%, -1.4%, 6.55% and inactive: 28.7, 21.2, 10.9, 19.1, 31.1 (2×), 30.5, 27.4, 30.1, 25.8, 12.3, 39, 56.1, 42.5, 35.7, 61.6, 25.3, 22, 19.4, 24.1%"},
      {"measurement": "growth", "setting": "T-47D breast; 25 µM, runs of 1993", "result": "active: -44.1, -59.8, -22.1 (2×), -19.1, -40.1, -23.8, 7.83, -30.7, -26.4, -14.2 (2×), -10.2, -23, -6.71, -27.1, -29.2, -25.7, 0.128, 0.211, -14.8 (2×), -27.6, -21.1, 1.53, -17.6, -6.61, 5.75, -13.1, -22.2, -12.5, -14.1, 1.38, -6.43, -21.4, -37.3, -16.7, -18.5, -24.7, -1.8% and inactive: 19.9%, 10.6%, 10.9%"},
      {"measurement": "growth", "setting": "T-47D breast; 25 µM, runs of 1994", "result": "active: -31.3, -5.32, -25.7, -9.73, -8.67, -10.7, -14.1, 5.9, -12.5, -7.23, -12.8, -13.2, 1.86, -19, -30.3, -11.8, -9.21, -13.5, 2.85, -18.3, -20.4, -77.3, -6.01, -65.5, -9.46, -37.4, 4.42, -43.7, -4.89, -6.53, -24.1, -20.6% and inactive: 90.6%, 19.8%"},
      {"measurement": "growth", "setting": "T-47D breast; 25 µM, runs of 1995", "result": "active: -17.9, -17.4, 0.942, -11.1, 0.0855, -14.3, -28, 3.43, -3.49, 4.36, -14.7, -6, -17, -0.978, -10.8, 3.85, -25.5, -31.7, -24, -40.1, -10.7, -23.1, -18.9, -19.9, -17.8, 1.58, -32.9, 1.7, 6.71, 7.57, -29.3, -25.1, -18.1, -17.1, -9.43, -6.34, 3.55, -12.3, -17.5, -11.8, -29.1, 1.67% and inactive: 22%"},
      {"measurement": "growth", "setting": "T-47D breast; 25 µM, runs of 1996", "result": "active: -11.9, -13.2, -8.86, -15.5, -4.18, -20.1, -9.76, -27.2, 8.18, -9.49, -7.45, -19.1, 3.76, -40.7, -24.7, 4.29, -15.4, -30.8, -18.6, -2.2, -31.2, -20.3, 1.28, -23, -19.7, -16.4, -20.5, -21.1, -11.1, -39.6, -10.2, -16.8, -33.7, -28.6, -49.5, -19.3, -10.7, -25.3, -21.2, -13.3, -15.9, -0.172, -11.2, -38.5, -47.1% and inactive: 11.2%, 20.8%"},
      {"measurement": "growth", "setting": "T-47D breast; 25 µM, runs of 1997", "result": "active: -32.7, -18.1, -27.4, -6.28, -27.5, -22.1, -9.25, -26, -18.8, -16.5, -0.781, -20.6, -30.4, -11.2, -13.8, -23, -8.85, -27.1, 3.89, -47.8, -17.1, -23.6, -2.67, -27.2, -14.1, -17.7, -22.2, -16.2, -12.7, -20.3, -3.35, -10.5, -10.6, -31.1, -4.46, -24.1, -27.3, -43.6, -24.9, -8.76% and inactive: 12.9%, 11.3%"},
      {"measurement": "growth", "setting": "T-47D breast; 25 µM, runs of 1998", "result": "active: -34.9, -37, -23.4, -26.6, -13.6 (2×), -28.8, -6.68, -24.1, 1.04, -12.9, -22.4, -1.67, -12.4, -26.3, 8.47, -31.9, -48.7, 5.69, -1.6, -49.2, -37.4% and inactive: 15.1%"},
      {"measurement": "growth", "setting": "T-47D breast; 25 µM, runs of 1999", "result": "active: -32.9, -2.48, -1.5, -21.6, -2.05, -47.1, -27.2, -51.6, -25, -71.3, -53.4, -14, -100, -26.8% and inactive: 19.8%"},
      {"measurement": "growth", "setting": "T-47D breast; 25 µM, runs of 2000", "result": "active: -11.4%, -100%, 8.48%"},
      {"measurement": "growth", "setting": "BT-549 breast; runs of 2006", "result": "inactive: 12.8%, 20.3%"},
      {"measurement": "growth", "setting": "BT-549 breast; runs of 2007", "result": "inactive: 32.8, 47.9, 23.5, 18.4, 26, 31.9, 61.4, 64.4, 42.8, 29.8, 63.6, 35.5, 49.9, 42.7, 158, 61.8, 56.1, 63.2, 73.6, 76, 102, 73.5, 72.9, 86.7, 29, 79.8, 65.8, 65.7, 56, 44.8, 56.8, 38, 56.9, 45.7, 52.6, 44% and active: 0.447%, 0.0994%"}
    ]}
  ]
}
